Experimental data as given in publication PMC12136788.
The other results are listed elsewhere or left out.

B1: chr15:77046177:77046188:-|3pUTR|ENSG00000140391|msi1_unk|FALSE|overlapping (ssRNA)
RNA: GGGAGUUCUACAGUCCGACGAUCUUAAUCAAAGUUGGCUUUAUAGGAGGAGUAUAAUGUAUGCACUACUGUUUUAAAAGAAUUAGUGUGAGUGUGUUUUUGUAUGAAUGAGCCCAUUCAUGGUAAGUCUUAAGCUUGUUGGAACAACAGAGGAUUGAGCAUCA
B2: chr11:1889147:1890584:-|CDS|ENSG00000283787|control|control|control (ssRNA)
RNA: GGGAGUUCUACAGUCCGACGAUCGCCACCCGGCUUCCAGGCCUCAGUGCCCAGAGAGGCUAGUGCCAGGGUUGUGGUGCCCAUAGCCCCGACCUGCCGCUCGCUGGAGUCCUCACCGCACAGCCUGGUCCCCAUGGGCCCUGGCAACAGAGGAUUGAGCAUCA
B3: chr3:142163631:142163732:-|3pUTR|ENSG00000175066|unk|total|mutant (ssRNA)
RNA: GGGAGUUCUACAGUCCGACGAUCCCCAAAGUGCUGGGAUUGCAGCCGUGAACCACUGCACCCAGCCAAUGGGUGUAAUUUCACCGGAAAUAAUUCUUUUUGUCAGAAUGUACUGAAUUGUAAUAUUAAUACCUGAAAAUUUGUCAACAGAGGAUUGAGCAUCA
B4: chr20:187888:188118:-|CDS|ENSG00000185982|control|control|control (ssRNA)
RNA: GGGAGUUCUACAGUCCGACGAUCCUUCAAUAAAGUAACAGGCUAUUGCAGGAAGAAAUGCAAGGUAGGAGAAAGAUAUGAAAUAGGAUGUCUAAGUGGGAAAUUAUGUUGUGCUAAUGAUGAAGAAGAGAAAAAACAUGUGUCCAACAGAGGAUUGAGCAUCA
B5: chr2:19992051:19993110:-|three_prime_utr|ENSG00000132031|control|control|control (ssRNA)
RNA: GGGAGUUCUACAGUCCGACGAUCAGAAUCAGCAUGAUUCUUCCAAGGAAAUACAUAUGCAGAUACUUAUUAAGAGCAAACUUUAGUGUCUCUAAGUUAUGACUGUGAAAUGAUUGGUAGGAAAUAGAAUGAAAAGUUUAGUGUCAACAGAGGAUUGAGCAUCA
B6: ENSG00000136631:stop:overlap|stop_codon|ENSG00000136631|stop_codon|NA|stop_codon (ssRNA)
RNA: GGGAGUUCUACAGUCCGACGAUCACAAAGGUGUUGGAGAGCAGCUUUGGGUUCUGUGCUGGUUGUUAGAACUCAUCUCCAGGUAGCCCACGGAUACGUGGUUGGCACAGACACAAGACUCCCAGAGUUGUCCUAACAAUAAGUCAACAGAGGAUUGAGCAUCA
B7: ENSG00000107863:be:win_4351|CDS|ENSG00000107863|bound_else_gene|NA|bound_elsewhere_windowed (ssRNA)
RNA: GGGAGUUCUACAGUCCGACGAUCCACAAUGAUACUAAAGAGGAGUCCAAAAAAGAAAGUGAGACACUGGGCAGAAAACAGAAGAUCAUCAUUGCCAAAGAAAACAGCACUAGGAAAGACCCCAGCACGACAAAAGAUGAAAAGCAACAGAGGAUUGAGCAUCA
B8: chr6:350928:351029:+|3pUTR|ENSG00000112679|unk|FALSE|unique (ssRNA)
RNA: GGGAGUUCUACAGUCCGACGAUCCCACAGAGUUUAGGCUGGUGCUGCCAAAAAGAAAAGCAACAUAGAGUUUAAGUAUCCAGUAGUGAUUUGUAAACUUGUUUUUCAUUUGAAGCUGAAUAUAUACGUAGUCAUGUUUAUGUUCAACAGAGGAUUGAGCAUCA
B9: ENSG00000198589:be:win_1201|CDS|ENSG00000198589|bound_else_gene|NA|bound_elsewhere_windowed (ssRNA)
RNA: GGGAGUUCUACAGUCCGACGAUCGCUGAGCAUCACAAACUUUUAUUGUACGAUGGGAAACUCUCUAGUGCCAUUGCAUUCACGUACAAUCCACGGGCUACAGAUGCCCAGCUUUGUCUUGAAUCAUCUCCUAAGGACAACCCUCAACAGAGGAUUGAGCAUCA
B10: chr14:92797766:92797867:+|CDS|ENSG00000066455|msi1|FALSE|unique (ssRNA)
RNA: GGGAGUUCUACAGUCCGACGAUCCAUUUUGUGCGAAGAAAAAAGUCAGAACCUGAUGAUGAGCUGCUGUUUGAUUUUCUUAAUAGUUCACAGAAGGAGCCUACCGGGAGGGUGGAAAUCAGAAAGGAAAAAGGCAAGACACCUCAACAGAGGAUUGAGCAUCA
B11: chr8:38210266:38210373:+|CDS|ENSG00000156735|unk|FALSE|unique (ssRNA)
RNA: GGGAGUUCUACAGUCCGACGAUCAAAAAUCAUACAUGUGCUGGAGAAGGUCCAGUAUCUUGAACAAGAAGUAGAAGAAUUUGUAGGAAAAAAGACAGACAAAGCAUACUGGCUUCUGGAAGAAAUGCUAACCAAGGAACUUUUCAACAGAGGAUUGAGCAUCA
B12: ENSG00000107863:be:win_601|CDS|ENSG00000107863|bound_else_gene|NA|bound_elsewhere_windowed (ssRNA)
RNA: GGGAGUUCUACAGUCCGACGAUCCCAAUCUGCUAUCCCUGGCUGCCAUCUGCCCCAUCAGCCAUGGCACAGCCAGUUGAAAUAUCUCCUCCUGACUCAUCAUUGAGCAAACAGCAAACCAGUACACCAGUACUGACACAACCUCAACAGAGGAUUGAGCAUCA
B13: chr12:107752058:107752159:-|CDS|ENSG00000110851|unk|FALSE|unique (ssRNA)
RNA: GGGAGUUCUACAGUCCGACGAUCUAACUCUAUAAAUGUUGAUGGUAAUACAGCAUUAUCUAUCACCAAUAACCCUUCAGCACUAGAUCCCUAUCAGUCCAAUGGAAAUGUUGGAUUAGAACCAGGCAUUGUUUCAAUAGACUCCAACAGAGGAUUGAGCAUCA
B14: chr12:104348774:104348848:+|3pUTR|ENSG00000198431|msi1_unk|FALSE|overlapping (ssRNA)
RNA: GGGAGUUCUACAGUCCGACGAUCCGUUGUCAAGUUUUCUAGGGUUGAAUUUUUUUCUUUUUUCUCCAUGGUGUUAAUGAUAUUAGAGAUGAAAAACGUUAGCAGUUGAUUUUUGUCCAAAAGCAAGUCAUGGCUAGAGUAUCCCAACAGAGGAUUGAGCAUCA

Target: MSI1 full-length (mouse, UniProt Q61474 1-362)
Experiment: nsRBNS (natural sequence RNA bind-n-seq); RBNS binding buffer (assumed for nsRBNS): 25 mM Tris pH 7.5, 150 mM KCl, 3 mM MgCl2, 0.01% Triton X-100, 500 ug/ml BSA, 20 U/ml SUPERase-In, 4 C; UNK is unkempt and MSI1 is Musashi-1; names of the RNAs are library labels; protein concentration not given here; high values mean tight binding

Sequence of UniProt Q61474 (Q61474 whole entry): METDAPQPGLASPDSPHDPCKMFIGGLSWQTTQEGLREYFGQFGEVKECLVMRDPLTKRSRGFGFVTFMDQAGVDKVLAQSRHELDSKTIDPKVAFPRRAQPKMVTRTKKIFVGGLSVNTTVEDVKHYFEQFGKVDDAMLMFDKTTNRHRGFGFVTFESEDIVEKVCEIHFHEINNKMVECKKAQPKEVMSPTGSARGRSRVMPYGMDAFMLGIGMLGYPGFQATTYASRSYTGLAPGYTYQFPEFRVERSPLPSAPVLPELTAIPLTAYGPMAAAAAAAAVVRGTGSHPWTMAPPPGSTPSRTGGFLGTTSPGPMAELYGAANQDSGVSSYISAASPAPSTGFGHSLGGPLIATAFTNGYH

Row | Binder | binding signal
1 | B1 | 1.85 enrichment R
2 | B2 | 0.566 enrichment R
3 | B3 | 0.524 enrichment R
4 | B4 | 1.31 enrichment R
5 | B5 | 4.97 enrichment R
6 | B6 | 1.19 enrichment R
7 | B7 | 0.84 enrichment R
8 | B8 | 4.68 enrichment R
9 | B9 | 0.29 enrichment R
10 | B10 | 0.533 enrichment R
11 | B11 | 1.57 enrichment R
12 | B12 | 0.384 enrichment R
13 | B13 | 0.566 enrichment R
14 | B14 | 2.02 enrichment R
